Source: PubChem BioAssay AID310 (DTP/NCI, 2004)
Records with an inconclusive call do not appear. A number of entries come with more than one value. They are shown here; other results are not. There may be further records. The records of an entry are repeats across runs, samples, wells, individuals or studies.

Tested on: C3AKF1 mice, osteogenic sarcoma HE10734 s.c., tumor weight T/C
Assay: NCI In Vivo Anticancer Drug Screen. Data for tumor model Osteogenic Sarcoma HE 10734 (subcutaneous) in C3AKF1 (CHKRF1) mice
Conditions: endpoint: mean tumor weight, schedule: Q01DX010 (ip), higher = larger tumour
Experimental: The antitumor activity of compounds was measured in mice bearing transplantable tumors. Survival or tumor size were measured and the results are expressed as the measurement made in the treated group (T) divided by the measurement made in the vehicle treated control group (C). The tumor model used in this assay is Osteogenic Sarcoma HE 10734 (subcutaneous) in C3AKF1 (CHKRF1) mice

[1] = dose: 250.0 mg/kg/injection, vehicle: saline
[2] = dose: 200.0 mg/kg/injection, vehicle: saline

Clc1ncnc2c1ncn2C1CCCO1 (stereo not drawn)
T/C (dose: 75.0 mg/kg/injection, vehicle: saline): 38 % of control and 82 % of control
T/C (dose: 150.0 mg/kg/injection, vehicle: saline): 34 % of control and 63 % of control
T/C (dose: 300.0 mg/kg/injection, vehicle: saline): 55 % of control, 70 % of control, 88 % of control

CCC(=O)NC1=C(N2CC2)C(=O)C(NC(=O)CC)=C(N2CC2)C1=O
T/C (dose: 0.6 mg/kg/injection, vehicle: saline): 42 % of control and 81 % of control

Cc1nc(N)nc(N)c1-c1ccc(Cl)c(Cl)c1
T/C (dose: 0.75 mg/kg/injection, vehicle: carboxymethylcellulose (CMC)): 28 % of control and 79 % of control

NC(=O)c1ccc(NC(=O)CCC(=O)Nc2ccc(C(N)=O)cn2)nc1
T/C (dose: 0.83 mg/kg/injection, vehicle: carboxymethylcellulose (CMC)): 27 % of control and 91 % of control

NC(CCSCc1ccc(N(CCCl)CCCl)cc1)C(=O)O (stereo not drawn)
T/C (dose: 18.0 mg/kg/injection, vehicle: saline): 36 % of control and 76 % of control
T/C (dose: 36.0 mg/kg/injection, vehicle: saline): 37 % of control, 59 % of control, 80 % of control

O=C(O)C1(NO)CCCC1
T/C (dose: 56.0 mg/kg/injection, vehicle: saline): 39 % of control and 80 % of control

C/C=C1\CN(C)[C@H]2Cc3c([nH]c4ccccc34)[C@@H](c3cc4[nH]c5c(c4cc3OC)CCN3C[C@H]4C[C@H](CC)[C@H]3[C@@]5(C(=O)OC)C4)C[C@H]1C2C(=O)OC (stereo partly drawn)
T/C (dose: 13.0 mg/kg/injection, vehicle: water): 73 % of control and 101 % of control
T/C (dose: 45.0 mg/kg/injection, vehicle: water): 26 % of control and 53 % of control

C=CCn1c(=O)n(CC=C)c(=O)n(CC=C)c1=O
T/C [1]: 44 % of control and 72 % of control

O=P1(N(CCCl)CCCl)NCCCO1 (stereo not drawn)
T/C (dose: 12.5 mg/kg/injection, vehicle: saline): 20 % of control and 157 % of control

O=c1n(CCCl)c(=O)n(CCCl)c(=O)n1CCCl
T/C [1]: 62 % of control and 123 % of control

c1ccc(CSc2ncnc3nc[nH]c23)nc1
T/C (dose: 25.0 mg/kg/injection, vehicle: saline): 59 % of control and 99 % of control
T/C [2]: 7 % of control, 28 % of control, 43 % of control

CS(=O)(=O)OC[C@@H](O)[C@@H](O)COS(C)(=O)=O
T/C (dose: 250.0 mg/kg/injection, vehicle: carboxymethylcellulose (CMC)): 77 % of control and 107 % of control

ClCCn1cnc2c(SCc3ccccc3)ncnc21
T/C [2]: 40 % of control and 90 % of control

CN(N=O)C(N)=O
T/C (dose: 7.0 mg/kg/injection, vehicle: carboxymethylcellulose (CMC)): 38 % of control and 107 % of control

CN(C)c1ccc(/C=C\c2ccnc3ccccc23)cc1
T/C (dose: 1.25 mg/kg/injection, vehicle: carboxymethylcellulose (CMC)): 79 % of control and 107 % of control
T/C (dose: 5.0 mg/kg/injection, vehicle: carboxymethylcellulose (CMC)): 56 % of control and 110 % of control
T/C (dose: 10.0 mg/kg/injection, vehicle: carboxymethylcellulose (CMC)): 48 % of control, 90 % of control, 95 % of control
T/C (dose: 33.0 mg/kg/injection, vehicle: carboxymethylcellulose (CMC)): 59 % of control and 85 % of control
